# Over roughly 33,000 sequences, “E-score (-0.5 to 0.5)” has its median near -0.021; the highest 2% begin near 0.32. This is one part of the list.
# Molecular target: T1, Zap1 (UniProt P47043)
# T1 sequence: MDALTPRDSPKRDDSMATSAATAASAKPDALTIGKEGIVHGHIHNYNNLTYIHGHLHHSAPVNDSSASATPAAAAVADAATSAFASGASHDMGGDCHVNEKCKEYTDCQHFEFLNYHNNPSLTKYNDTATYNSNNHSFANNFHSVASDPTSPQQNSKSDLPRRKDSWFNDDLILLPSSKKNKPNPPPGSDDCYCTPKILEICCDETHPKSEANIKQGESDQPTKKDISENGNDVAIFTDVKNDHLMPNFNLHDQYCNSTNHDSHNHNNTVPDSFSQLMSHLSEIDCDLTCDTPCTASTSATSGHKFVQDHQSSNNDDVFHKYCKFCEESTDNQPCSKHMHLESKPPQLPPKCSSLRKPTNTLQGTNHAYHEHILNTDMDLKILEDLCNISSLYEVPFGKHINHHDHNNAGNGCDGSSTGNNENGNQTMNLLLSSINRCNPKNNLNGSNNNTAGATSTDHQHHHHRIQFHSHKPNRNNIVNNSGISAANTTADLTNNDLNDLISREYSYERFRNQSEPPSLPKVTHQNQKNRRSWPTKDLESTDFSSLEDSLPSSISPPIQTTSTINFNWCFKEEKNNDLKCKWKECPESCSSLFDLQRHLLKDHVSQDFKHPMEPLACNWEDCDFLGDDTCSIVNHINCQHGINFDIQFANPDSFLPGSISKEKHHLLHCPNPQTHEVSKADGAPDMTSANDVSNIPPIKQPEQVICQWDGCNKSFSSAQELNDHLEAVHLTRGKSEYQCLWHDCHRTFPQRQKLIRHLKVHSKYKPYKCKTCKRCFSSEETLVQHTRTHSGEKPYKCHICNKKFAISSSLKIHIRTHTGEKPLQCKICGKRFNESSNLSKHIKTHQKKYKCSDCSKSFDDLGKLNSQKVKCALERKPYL
# Assay: PBM E-score (8-mer binding enrichment) (E-score (-0.5 to 0.5)); higher = stronger / more preferred TF binding; most listed sequences are background and not binding sites
# Conditions: protein concentration: 200 nM; construct: GST-full length
# How it was run: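 Yeast transcription factors carrying a GST tag, as full-length proteins or DNA-binding domains, were produced by PURExpress in vitro transcription/translation. About 100-200 nM protein was applied to universal all-10-mer Agilent arrays, double-stranded by primer extension on fresh or once-stripped slides. Bound protein was detected with fluorescent anti-GST, and scans were normalised with masliner. The Universal PBM Analysis Suite gave each ungapped eight-base word, pooled with its reverse complement, an E-score, a modified Wilcoxon-Mann-Whitney statistic.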
row,Sequence,PBM E-score
1,CAATTTAG,0.155
2,TCTCATAA,0.0169
3,TAGGTAAA,0.0149
4,CGGGTCGC,0.0356
5,TGTAGAAA,-0.0482
6,AACCACTT,0.235
7,AGCTTCCC,-0.365
8,TGCTACAA,0.155
9,CATACAAC,0.0436
10,AACCTGGA,0.135
11,CCCCTCAG,0.0013
12,CTCCTACA,0.0476
13,CCGGATTC,-0.0168
14,CTTAATGC,-0.103
15,AAACAATT,-0.0127
16,AAACGGTG,-0.0252
17,TACGCCCA,-0.0229
18,CATCCTTC,-0.136
19,CGGTATAG,-0.122
20,AACAATAT,0.292
21,ACAAACCC,0.0973
22,AGGGGAGC,-0.289

row,Sequence,PBM E-score
1,CACCGGAG,-0.208
2,GGACGGCC,-0.0875
3,CTAATTAA,-0.00111
4,GAACTTCA,-0.0501
5,GGTGTCAA,-0.0571
6,AGTGCCGA,-0.124
7,GAGATAGC,-0.102
8,CAGAGTTC,0.00679
9,CCCGCTAG,0.0546
10,GCTAAAAC,0.0736
11,CGCCTCAC,0.0194
12,CTAGCCTA,-0.231
13,CGCCCTTC,-0.0904
14,CCTGACGA,0.0606
15,TAGCGTAA,0.218
16,AGGACGGG,-0.274
17,AGTATTGC,0.026
18,CTCTGCGC,-0.194
19,GGTACAAC,0.296
20,GAATTTCA,0.0241
21,CTCATTGC,0.048
22,CCCTCTCG,0.0789

row,Sequence,PBM E-score
1,CCAGGCAC,-0.192
2,TTCGGAAA,-0.0729
3,CAACCAAC,0.0043
4,AGCCTCCA,-0.181
5,ATTAGATA,0.131
6,TGAGGGCA,-0.145
7,GGGTCAAC,0.306
8,GGGTTCGA,-0.0189
9,ACATCTAC,-0.00772
10,GCAGTTAA,0.0321
11,ATTCCTTG,-0.102
12,TCCTACCA,-0.13
13,GAAGGAAA,-0.145
14,AATATCCC,-0.0114
15,ATTAGGGC,-0.0585
16,CAAATGCG,0.187
17,ATTGAACC,0.15
18,AGCCGCAC,-0.159
19,CATCGTTC,-0.015
20,AACGTCAG,-0.191
21,AACGCTGT,-0.126
22,CGTTGGGC,-0.172

row,Sequence,PBM E-score
1,GAACTCTA,-0.0476
2,GGAGCGAC,-0.122
3,AGGCTGAT,-0.178
4,CCAAAAAA,0.302
5,GCTCCCCC,-0.279
6,GTGATCTA,0.0436
7,CATACGTA,0.0326
8,ACCACATA,0.186
9,ACGCATCG,-0.197
10,ATAACTCA,0.139
11,CTCTTTAA,0.0384
12,GAACGTAC,-0.0635
13,GGGCATAA,0.113
14,ACTCTTGA,-0.00751
15,TCAATTAA,0.118
16,AGGGTAAG,0.373
17,TAAACGCA,-0.0354
18,AGATGAAT,-0.102
19,TCCCACGA,0.00185
20,CCGGACTA,-0.112

# Source: the supplement of paper PMC3334620
